In PubChem BioAssay AID1346428 (National Center for Advancing Translational Sciences (NCATS), 2018):
In all, about 48,000 compounds went through this assay and about 1,200 (2.5%) were called active. About 2% were inconclusive and are not listed.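 Rule for the calls: active = activation of at least 60% and not above a set upper limit (about 1 call in 100 departs from these limits); inconclusive = activation of 40% to 60%, or above that upper limit; inactive = activation under 40%.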 This is one part of the list.

target: Probable G-protein coupled receptor 32 (Homo sapiens) (UniProt O75388); assay: qHTS for Agonists of Human Resolvin D1 Receptor DRV1; conditions: CHO-K1 GPR32 beta-arrestin PathHunter luminescence, 90 min; at 76.9 µM; hits give high values; zero percent set by DMSO-only wells; note: 0% is about no effect
Outline: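 Engineered CHO-K1 line co-expressing GPR32-ProLink and EA-beta-arrestin. Compound treatment lasted 90 min at 37 °C. Luminescence was recorded after 1 h with substrate at ambient temperature, relative to DMSO basal wells.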

Chain of UniProt O75388 (O75388 whole entry, looked up): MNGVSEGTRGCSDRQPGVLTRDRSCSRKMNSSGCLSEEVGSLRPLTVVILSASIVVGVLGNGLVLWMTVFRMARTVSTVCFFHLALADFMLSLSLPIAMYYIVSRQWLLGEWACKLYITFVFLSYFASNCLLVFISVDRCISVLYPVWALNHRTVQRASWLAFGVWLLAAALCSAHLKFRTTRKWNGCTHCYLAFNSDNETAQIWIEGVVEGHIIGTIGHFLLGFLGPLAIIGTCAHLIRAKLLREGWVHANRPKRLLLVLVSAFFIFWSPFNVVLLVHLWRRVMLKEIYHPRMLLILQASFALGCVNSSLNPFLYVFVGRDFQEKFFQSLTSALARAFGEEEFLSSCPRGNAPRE

activation, inactive:
Cc1ccc(S(=O)(=O)Cc2nc(-c3ccc(C(=O)NCc4ccccc4C)cc3)oc2C)cc1 -1.94%
COc1ccc(Cn2ccn(Cc3cccc(Cl)c3)c(=O)c2=O)cc1 -11.9%
CC(=O)c1ccc(NC(=O)C2=CC(c3ccc(C)cc3)=NS(=O)(=O)N2C)cc1 -5.79%
CCCn1cc(S(=O)(=O)c2ccc(OC)cc2)c(=O)c2cc(F)c(N3CCCC(C)C3)cc21 (centres undefined) 1.55%
Cc1ccc(C(=O)Nc2nc3nc(-c4ccccc4)cc(=O)n3[nH]2)cc1 41.9%
O=C(COc1ccccc1F)Nc1c(C(=O)Nc2cccc(F)c2)oc2ccccc12 -5.9%
CCCCCOC(=O)CSc1nc2sc3c(c2c(=O)n1-c1ccccc1)CC(C)(CC)OC3 (centres undefined) -20.3%
O=C(Nc1cc(-c2ccccc2F)nn1-c1ccccc1)c1ccccc1Br -15%
O=C(Nc1cc(-c2ccc(Cl)cc2)no1)c1ccc(F)cc1 2.74%
CCCSCCCNC(=O)CN1C(=O)COc2ccc(S(=O)(=O)N3CCCC3)cc21 -14.8%
COCCc1nn2c(=O)cc(COC(=O)c3ccccc3C)nc2s1 8.94%
Cc1ccc(C)c(N2CCN(C(=O)c3ccc4c(=O)n(CCc5ccccc5)c(=O)[nH]c4c3)CC2)c1 -9.06%
O=C1Nc2ccc(I)cc2/C1=C/c1cc(Br)c(O)c(Br)c1 -22.8%
O=C(COc1ccc(F)cc1)Nc1ccccc1C(=O)OCc1cc(=O)n2ccsc2n1 1.5%
CCOC(=O)c1[nH]c2c(c1Cc1ccccc1OC)C(=O)CC(c1ccccc1)C2 (centres undefined) -25.9%
CCCCn1c(=O)c2oc3ccccc3c2n(Cc2ccccc2C)c1=O -22.9%
COc1cc(NC(=O)C2=CC(c3ccco3)=NS(=O)(=O)N2C)cc(OC)c1OC -10.2%
NC(=O)c1ccccc1NC(=O)CN1c2ccccc2S(=O)(=O)c2ccccc21 7.1%
Cc1nc(-c2ccccc2)sc1CCNC(=O)C(=O)Nc1ccc(F)c(Cl)c1 2.18%
CCc1ccc(-n2nnc(-c3nc(-c4ccc(C)cc4)no3)c2N)cc1 10.6%
COc1cc(Cl)c(C)cc1NC(=O)Cn1c2ncccc2c(=O)n1-c1ccccc1 1.99%
COC(=O)c1c(NC(=O)COc2ccc(Cl)cc2)sc(C)c1C -12.1%
COCc1cc(C)nc2c1C(=O)NC(c1ccc(Br)cc1)N2Cc1ccccc1 (centres undefined) 25%
COc1cccc(N2CCN(C(=O)Cn3nc(C)n4c(cc5c(OC)cccc54)c3=O)CC2)c1 -1.56%
O=C(Nc1sc2c(c1C(=O)NCc1ccccc1)CCCC2)c1cc(=O)c2ccccc2o1 1.15%
COc1nnc(-c2ccc(N3CCCCC3)c(NC(=O)c3ccccc3Cl)c2)c2ccccc12 -5.16%
CCc1ccc(NC(=O)C(=O)NCC(c2cccnc2)N2CCc3ccccc3C2)cc1 (centres undefined) -21.5%
COc1ccc(Cl)cc1C(=O)NCc1nnnn1-c1ccccc1 -14.3%
O=C(NCc1ccc(Cl)cc1)C1CCN(c2ncnc3c2nc2n3CCCCC2)CC1 4.56%
CCc1ccc(NC(=O)CSc2nc3c(c(=O)[nH]2)CN(Cc2ccc(C)cc2)CC3)cc1 1.54%
CCOc1ccccc1C(=O)NCC(c1cccs1)S(=O)(=O)c1ccc(F)c(C)c1 (centres undefined) -6.62%
CCCCNC(=O)c1ccccc1NC(=O)CN(c1ccccc1)S(=O)(=O)N(C)C 1.63%
O=C(CSc1nc(=O)n(Cc2ccco2)c2c1CCC2)Nc1ccccc1C(F)(F)F -4.95%
Cc1ccc2c(=O)cc(C(=O)Nc3ccc(S(=O)(=O)N4CCCCCC4)cc3)oc2c1 -0.445%
CCN(Cc1ccccc1)C(=O)Cn1c(=O)n(-c2ccc(Cl)cc2)c(=O)c2c(C)c(C)sc21 -3.39%
CCc1nnc(SCC(=O)N(CC)c2ccccc2)c2cc3oc(C)cc3n12 -15.2%
CC(=O)N1CCCc2cc(S(=O)(=O)N3CCC(C(=O)NCc4ccccc4)CC3)ccc21 3.6%
Cc1ccc(Cl)cc1N1CCN(C(=O)c2cc(S(=O)(=O)N3CCCC3)c[nH]2)CC1 -12.3%
CCOC(=O)CNC(c1ccccc1)c1cc(Br)ccc1NC(=O)c1cccc(Cl)c1 (centres undefined) -41.6%
CCc1ccc(NC(=O)C2CCCN(S(=O)(=O)c3ccc(F)cc3)C2)cc1 (centres undefined) 2.89%
Cc1ccc(CN2CCSc3ccc(C(=O)Nc4ccc(C)cc4)cc32)cc1 -21.9%
CCOc1ccc(OCC)c(NC(=O)c2cnc(SC)nc2-c2ccccc2)c1 -15.3%
C[C@]12CC[C@H]3[C@@H](CCC4=CC(=O)CC[C@@]43C)[C@@H]1CC[C@@H]2C(=O)CO -40.7%
Cc1ccc(C)c(NC(=O)CSc2nc3c([nH]c4ccccc43)c(=O)n2-c2ccc(F)cc2)c1 -9.85%
Cc1ccc(Cn2c(=O)n(Cc3ccco3)c(=O)c3oc4ccccc4c32)cc1 -5.55%
Cc1ccc(C)c(Cn2c(=O)n(-c3ccc(Cl)cc3)c(=O)c3c(C)c(C)sc32)c1 8.78%
COc1ccc(CC(=O)NCC(c2ccc(Cl)cc2)N2CCOCC2)cc1 (centres undefined) -3.54%
CN(C)S(=O)(=O)c1ccc2c(c1)nnn2CCNC(=O)Nc1ccc(Cl)cc1 9.71%
Cc1ccc(S(=O)(=O)c2nnn3c2nc(NC2CCCCC2)c2sccc23)cc1 -22.4%
Cc1ccc(C)c(Oc2nc3c(c(=O)n(C)c(=O)n3C)n2Cc2ccccc2)c1 -22.5%
Cc1ccc(Cc2cn3cc(-c4ccccc4)nc3s2)cc1 8.15%
O=C(CSc1nc2c(oc3ccccc32)c(=O)n1Cc1ccco1)Nc1ccccc1 -8.97%
Cc1ccc(CNC(=O)CCS(=O)(=O)c2cc3c(cc2C)NC(=O)CO3)cc1 26.1%
Cc1cccc(CSc2nc(-c3cccc(C)c3)nc3c2Cc2c(CO)cnc(C)c2O3)c1 29.1%
CCCSC1=NC2(CCN(C(=O)NC3CCCCC3)CC2)N=C1c1ccc(Cl)cc1 9.76%
Cc1ccc(CN2CCCN(Cc3c(C)cc(C)cc3C)S2(=O)=O)cc1 -19.1%
CC(C)(C)C(=O)OCc1cc(=O)n2nc(C3CC3)sc2n1 33%
COc1ccc(C)cc1NC(=O)COCc1cc(-c2ccc(F)cc2)on1 -7.44%
COc1cc(Cl)c(C)cc1NC(=O)Cn1cc(S(=O)(=O)N2CCC(C)CC2)c2ccccc2c1=O -3.56%
CCOC(=O)c1cc(-c2ccccc2)n(CC(=O)Nc2ccc(CC)cc2)c1C -13.3%
CCCN(CCC)c1nn2c(=O)c(C(=O)NCc3cc(Br)ccc3OC)cnc2s1 -7.71%
Cc1ccc(N2CCN(S(=O)(=O)c3c(C)[nH]c(=O)[nH]c3=O)CC2C)cc1 (centres undefined) 10.9%
Cc1nn(Cc2noc(C(=O)NC(C)c3ccccc3)n2)c(C)c1Br (centres undefined) -2.72%
COc1ccc(OC)c(CCNC(=O)CCn2c(=O)c3cccn3c3ccc(F)cc32)c1 -24.2%
Cc1cccc(S(=O)(=O)c2cn(C)c3cc(N4CCN(c5ccc(F)cc5)CC4)c(F)cc3c2=O)c1 -5.2%
CC1(C)O[C@@H]2[C@@H](CO[C@@]3(COS(N)(=O)=O)OC(C)(C)O[C@@H]23)O1 -0.901%
COc1cc(NS(=O)(=O)c2ccc(N)cc2)nc(OC)n1 3.07%
CC(C)c1ccc(NC(=O)CSC2=Nc3ccccc3C3=NC(CCC(=O)NCc4ccco4)C(=O)N23)cc1 (centres undefined) 0.505%
CC[N+](CC)(CC(=O)Nc1c(C)cccc1C)Cc1ccccc1 9.35%
COCCCNC(=O)c1sc2nc(C)c(C(=O)Nc3ccc(C)cc3C)c(-c3ccccc3Cl)c2c1N -31.5%
CCc1ccc2oc(-c3ccc(NC(=O)c4cc5ccccc5o4)cc3)nc2c1 6.82%
CCCNC(=O)CCCN1C(=O)CCn2nc(-c3cccn3C)cc21 2.58%
CCc1cc(=O)oc2c(C)c3c(cc12)CN(CCc1ccccc1OC)CO3 -21.4%
COc1ccc(C(=O)NCc2ccc3c(c2)CCN3C(=O)c2ccccc2)cc1 -16.8%
O=C(O)CCCC[C@@H]1CCSS1 -24.7%
Cc1cc(C)cc(Nc2cc(C(=O)NCCCN(C)C3CCCCC3)c3ccccc3n2)c1 -2%
Cc1ccc(Cl)cc1N1CCN(C(=O)c2ccc(CS(=O)c3ccccc3)o2)CC1 (centres undefined) -17.7%
O=C(CCSCc1cnn(-c2ccccc2)c1-n1cccc1)NCc1ccccc1Cl -21.6%
COc1ccc(NS(=O)(=O)c2ccc(-c3cnc(C4CC4)o3)cc2)cc1Cl 3.49%
COCCNC(=O)c1nn(-c2ccc(C)cc2)c(=O)n(C)c1=O -6.11%
COc1ccc(C(CNC(=O)c2oc3cc(C)c(Cl)cc3c2C)N2CCCCC2)cc1 (centres undefined) 1.42%
CC1CCN(S(=O)(=O)c2ccc3nc(NCc4ccccc4)ccc3c2)CC1 -1.72%
COCCNC(=O)CCc1c(C)n(C)c2cc(-c3cc(OC)c(OC)c(OC)c3)nn2c1=O -12.6%
COC(=O)c1scc(-c2ccc(C)cc2)c1S(=O)(=O)N1CCN(c2ccc(C)cc2C)CC1 -34.2%
